Sequences with one replicate were seen in a single cluster, so their values are uncertain.
System: ATP
Test: switch fluorescence ratio, 500 uM ATP over buffer (Cy3 cluster intensity, sum of 5 cycles each) (fold (ratio)); higher = stronger signal-on switching upon ATP binding; sequences stand for … in TCGTCGGCAGCGTCAGATGTGTATAAGAGACAGTTTTTTTTTTTTTTTTTTTTTTTTT…TC
Details: aptamer strand: ATP DNA aptamer (quencher-CACCTGGGGGAGTATTGCGGAGGAAGG + anchor), 100 nM annealed; ATP concentration: 500 uM; one replicate
Procedure, shortened: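 Five buffer/ATP imaging cycles were run on Cy3-labelled switching-strand clusters on a modified Illumina MiSeq flow-cell, with NaOH stripping and re-annealing between cycles. In each cycle, clusters annealed to 100 nM quencher-labelled ATP aptamer were imaged in selection buffer, then after 15 min with 500 uM ATP at 22 °C. Per cluster, the fluorescence ratio is summed target-cycle over summed buffer-cycle Cy3 intensity, averaged per switch-domain sequence. Only clusters within 100-1000 RFU were kept.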
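Note: ATP exposure 15 min at 22 °C before imaging.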

Sequence | switch fluorescence ratio
GACGGTTTA | 0.989
GACGTAAGGA | 1.06
GACGTCCGAG | 0.999
GACGTCCTGT | 1.03
GACGTTGTCT | 0.967
GACGTTTAGC | 1.01
GACTAACCGG | 1.02
GACTAACTCG | 1
GACTAAGAGA | 1.01
GACTACTGTG | 1.05
GACTAGGACA | 1.02
GACTAGTGGG | 1.02
GACTATTAAG | 1
GACTCAACGA | 1.13
GACTCACTGA | 1.16
GACTCATGCA | 1.29
GACTCCTGTA | 1.07
GACTCCTTGA | 1.02
GACTCGACTT | 0.971
GACTCGCATA | 5.73
GACTCGCCGT | 1.02
GACTCGGTTT | 1
GACTCTTCCT | 1.75
GACTCTTGCA | 1.13
GACTGAGGTT | 1.03

Sequence | switch fluorescence ratio
GACTGGACAT | 1.05
GACTGTACCG | 1.15
GACTGTTCTT | 0.992
GACTTATGAC | 1.02
GACTTCTTCT | 0.977
GACTTGACTC | 1.08
GACTTTCATT | 1.07
GACTTTGAAG | 1.12
GAGAAATGTT | 0.998
GAGAAGGGGT | 1
GAGAAGGTGG | 1.07
GAGAATCGG | 0.941
GAGAATTAC | 1.01
GAGACAACCT | 1.99
GAGACGAGG | 0.981
GAGACGATTG | 1.03
GAGACGCGAT | 1.73
GAGACGGGCC | 1.02
GAGACGTAGG | 1
GAGACGTGAA | 1
GAGACTGATT | 0.991
GAGACTGGAT | 1.03
GAGAGATAG | 1.05
GAGAGATTCG | 0.99
GAGAGCACAG | 1

Sequence | switch fluorescence ratio
GAGAGCCGCT | 1.01
GAGAGGCGAG | 1.02
GAGAGGTGGT | 1.04
GAGAGTGGAT | 1.04
GAGATACGCG | 1.02
GAGATATCGG | 1.02
GAGATCAGCA | 0.986
GAGATCATCT | 1.04
GAGATCGGGA | 1.01
GAGATCTTAG | 0.994
GAGATGAAAA | 1
GAGATGATTA | 1.01
GAGATGCTTT | 1.04
GAGATGGTGT | 1.03
GAGATTCGTC | 1.03
GAGATTCTGA | 1.06
GAGATTGTTG | 0.954
GAGATTTAAT | 0.993
GAGATTTCAC | 0.986
GAGCAATAGG | 2.18
GAGCAATCCG | 1.67
GAGCAATCTT | 2.36
GAGCAGTCCC | 1.15
GAGCATAATA | 1.2
GAGCATACGT | 1.25

Sequence | switch fluorescence ratio
GAGCCAAAAG | 0.993
GAGCCCGTAT | 1.12
GAGCCGGGG | 1.01
GAGCCTAAGC | 1.06
GAGCCTATAG | 1.04
GAGCCTCAGG | 1.08
GAGCGAAGGG | 0.997
GAGCGATG | 1.1
GAGCGATGGG | 0.973
GAGCGCTCAT | 1
GAGCGTTGTC | 1.01
GAGCGTTTGA | 0.98
GAGCTAAATA | 1.09
GAGCTAACAG | 1
GAGCTCTATG | 1.15
GAGCTGGACT | 1.07
GAGCTGGGCC | 0.984
GAGCTGTGT | 0.997
GAGCTTAGGT | 1.01
GAGCTTCCTT | 1.53
GAGCTTGGAC | 1.03
GAGCTTGGAG | 1.02
GAGGAAGCCC | 0.93
GAGGAATCCG | 1.05
GAGGATCGTG | 0.944

Reference: the supplement of paper PMC10126150
